What was measured:
[1] = test system: Shigella flexneri ATCC serotype 2a; experiment: Gentamicin protection assay, Shigella flexneri ATCC serotype 2a uptake into Abl/Arg mouse embryo fibroblasts
Shigella flexneri 2457T = experiment: Gentamicin protection assay, Shigella flexneri 2457T uptake into mouse embryo fibroblasts (Abl/Arg or Null); details: Abl/Arg cells, 10 μM, p value=0.0243

Cc1ccc(NC(=O)c2ccc(CN3CCN(C)CC3)cc2)cc1Nc1nccc(-c2cccnc2)n1 [STI571]
Level of Shigella uptake ([1]; Abl/Arg MEFs, 5 μM): reduced to that of the Null MEFs | Ability of Abl/Arg cells to be infected with Shigella ([1]; Abl/Arg MEFs, increasing concentrations (0-10 μM) of STI571): dose-dependent decrease | inhibition at 10 µM ([1]; Shigella flexneri, Fibroblast, in Mus musculus, read-out: Inhibition of internalization compared to untreated cells): 98% | Reduction in uptake of Shigella flexneri 2457T (Shigella flexneri 2457T): 60%

— patent US7384907B2, “Method of treating infection with ABl tyrosine kinase inhibitors” (Duke University, priority 2002, dated 2008)
